# Source: PMC4336329 (PLoS ONE, 2015)
# In all, about 310,000 compounds went through this assay and about 14,000 (4.5%) showed an effect of 50% or more. The effect is printed as a negative number. This is one part of the list.
# Molecular target: human ether-à-go-go-related gene (hERG) potassium channel (human, UniProt Q12809)
# Test: primary screen, population patch clamp on CHO cells stably expressing hERG
# 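Further: peak tail current of the secondary pulse compared with the same well before compound.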
# human ether-à-go-go-related gene (hERG) potassium channel, sequence (Q12809 whole entry, looked up): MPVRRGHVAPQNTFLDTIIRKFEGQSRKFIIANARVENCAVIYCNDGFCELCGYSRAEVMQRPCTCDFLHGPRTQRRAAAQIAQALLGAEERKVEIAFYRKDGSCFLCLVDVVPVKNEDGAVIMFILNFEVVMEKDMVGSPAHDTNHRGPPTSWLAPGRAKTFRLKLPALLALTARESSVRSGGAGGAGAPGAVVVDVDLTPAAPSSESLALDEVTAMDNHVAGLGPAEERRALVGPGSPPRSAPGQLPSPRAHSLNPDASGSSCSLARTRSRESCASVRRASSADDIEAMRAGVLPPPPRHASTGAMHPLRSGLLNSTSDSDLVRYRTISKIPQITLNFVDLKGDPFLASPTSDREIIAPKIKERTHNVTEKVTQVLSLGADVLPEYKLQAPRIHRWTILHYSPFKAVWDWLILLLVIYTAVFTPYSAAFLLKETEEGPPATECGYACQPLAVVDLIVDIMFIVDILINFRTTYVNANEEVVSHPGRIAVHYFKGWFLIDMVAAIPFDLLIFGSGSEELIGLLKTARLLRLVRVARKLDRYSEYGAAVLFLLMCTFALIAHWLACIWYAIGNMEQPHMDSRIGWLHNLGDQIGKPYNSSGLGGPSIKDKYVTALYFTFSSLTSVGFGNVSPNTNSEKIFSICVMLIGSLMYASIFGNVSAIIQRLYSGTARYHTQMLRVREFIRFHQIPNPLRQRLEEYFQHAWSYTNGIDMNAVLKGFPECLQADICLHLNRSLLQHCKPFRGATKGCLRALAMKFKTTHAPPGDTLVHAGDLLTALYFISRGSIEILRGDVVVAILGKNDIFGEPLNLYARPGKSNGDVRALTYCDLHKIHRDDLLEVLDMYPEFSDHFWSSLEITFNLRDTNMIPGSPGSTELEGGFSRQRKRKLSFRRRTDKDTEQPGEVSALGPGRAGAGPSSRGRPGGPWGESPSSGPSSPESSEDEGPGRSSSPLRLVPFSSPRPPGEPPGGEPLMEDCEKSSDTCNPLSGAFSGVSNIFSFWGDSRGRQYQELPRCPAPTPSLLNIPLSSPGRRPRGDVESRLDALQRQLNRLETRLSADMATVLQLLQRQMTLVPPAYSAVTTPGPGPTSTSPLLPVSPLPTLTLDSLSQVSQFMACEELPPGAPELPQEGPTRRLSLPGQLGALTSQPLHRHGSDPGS
row,SMILES,"hERG current change (%, negative = inhibition) at 10uM"
1,CCOc1ccc(NC(=S)N2CCC(N(C)CC3CCCO3)CC2)cc1 (stereo not drawn),-25.6%
2,CCN1CCN(CCCNC(=O)c2cc3c(=O)oc4ccc(C)cc4c3s2)CC1,-19.1%
3,N#Cc1c2n(c3c(=O)n(CC(=O)c4ccc([N+](=O)[O-])cc4)cnc13)CCCCC2,-8.48%
4,Cc1[nH]c2ccccc2c1SCC(=O)N1CCCc2ccccc21,1.07%
5,O=C(Nc1cccc(S(=O)(=O)Nc2ccccc2Cl)c1)c1ccc(Cl)nc1,-8.9%
6,Nc1nc(OCc2ccccc2)c2[nH]cnc2n1,-0.131%
7,C=CCc1ccccc1OCC(O)CN1CCN(c2ccc(C)cc2)CC1 (stereo not drawn),-44.7%
8,CCOC(=O)c1cc2ccc3ccccc3c2s1.O=C(O)CCCCC(=O)O,13.1%
9,COc1ccccc1C(=O)NCCC(=O)N1CCCC(C(F)(F)F)C1 (stereo not drawn),22.5%
10,Cc1nn(Cc2ccccc2)c(C)c1C(=O)OCC(=O)Nc1cccc(S(N)(=O)=O)c1,-0.587%
11,COc1ccccc1NS(=O)(=O)c1cc(NC(=O)CC(C)(C)C)ccc1N1CCOCC1,-16.3%
12,COc1ccc(-c2cn(CCC(=O)O)c(-c3ccc(Cl)nc3)n2)cc1,9.6%
13,CN1CCCN(c2ccc([N+](=O)[O-])nc2)CC1,2.45%
14,C=CCNC(=S)Nc1c(C(=O)OC)[nH]c2cc(OC)ccc12,17.4%
15,O=C(O)c1ccc2c(c1)C(=O)N(c1nccs1)C2=O,-1.09%
16,Cn1c(-c2ccc3c(c2)OCO3)cnc1N,-16.5%
17,O=C(CC1CC2CCC1C2)NCCc1ccc(Cl)cc1 (stereo not drawn),-27%
18,OCCN(CC#CC(O)(c1ccccc1)c1ccccc1)CCO,5.56%
19,Nc1nc(NCc2ccccc2)nc(Nc2ccc(F)cc2)c1[N+](=O)[O-],7.02%
20,CC(=O)Nc1sc(C)c(C)c1C(=O)OC(C)C,8.77%
21,CCOC(=O)N1CCC(NC(=O)Cn2cc3c(n2)CCCC3)CC1,0.774%
22,CC(C)OC(=O)c1c(N)n(Cc2ccco2)c2nc3ccccc3nc12,-31.4%
23,O=C(NCCS(=O)(=O)NCc1ccccc1Cl)c1ccc2c(c1)OCO2,-16.2%

row,SMILES,"hERG current change (%, negative = inhibition) at 10uM"
1,COc1ccc(F)cc1S(=O)(=O)N1CCCCC1,-13.8%
2,S=C(NC1CCCCCC1)NC1CCCC1,-1.12%
3,CCOC(=O)[C@@H]1[C@H]2COc3cc(OC)ccc3[C@@H]2N2C(=O)N(c3cccc(F)c3)C(=O)[C@@]12C,3.88%
4,CCOc1ccc(NC(=O)C[n+]2ccc(N(C)C)cc2)cc1.[Cl-],11.8%
5,CCCNS(=O)(=O)c1ccc(C(=O)NCC2CCCO2)cc1 (stereo not drawn),-6.36%
6,COc1cccc(NC(=O)CN(C)C(=O)c2cccc(S(=O)(=O)Nc3ccc(C)cc3)c2)c1,-11.7%
7,COC(=O)c1ccc(Nc2ncnc3sccc23)cc1,10.1%
8,COC(=O)C(C)Sc1nc2c(c(=O)n1-c1ccccc1)SCC2 (stereo not drawn),-6.49%
9,COc1ccc(NS(=O)(=O)c2cccc(C(=O)NNC(=O)c3cccc(NC(C)=O)c3)c2)cc1,6.41%
10,Cc1nn(-c2ccccc2)c(N)c1N=Nc1cccnc1,-6.73%
11,COc1ccc(C2c3[nH]c4ccccc4c3C[C@H]3C(=O)N(C4CCN(Cc5ccccc5)CC4)CC(=O)N23)c(OC)c1 (stereo partly drawn),-25%
12,COc1ccc(OCCN2C(=O)c3ccccc3C2=O)cc1,4.25%
13,Cc1nn(-c2cccc(Cl)c2)c2c1C(c1ccncc1)C(C#N)=C(N)O2 (stereo not drawn),6.79%
14,CC1=NN(C(=O)CSCc2ccccc2)C(O)(c2ccc(F)cc2)C1 (stereo not drawn),-13.1%
15,Cc1nc(N2CCN(c3ccccc3)CC2)nc2c1C(=O)CC(c1ccccc1)C2 (stereo not drawn),10.7%
16,CC1CCC(NCCNC(=O)c2ccco2)CC1 (stereo not drawn),11.8%
17,CC(=O)c1c(C)[nH]c(C(=O)OCC(=O)Nc2cc(C)on2)c1C,9.91%
18,CCN(Cc1ccccc1)C(=O)c1c[nH]c2ccc(S(=O)(=O)N(C)CCC#N)cc2c1=O,-0.855%
19,COc1ccc(NC(=O)Nc2ncn(Cc3cccc(C(F)(F)F)c3)n2)cc1OC,-32.5%
20,CC[N+](C)(CC)CCCCOc1ccc2c(c1)C(=O)c1cc(OCCCC[N+](C)(CC)CC)ccc1-2.[I-],12.9%
21,O=C(Nc1nncs1)c1cc(S(=O)(=O)N2CCCCC2)ccc1Cl,10.2%
22,Cc1ccc(Nc2nnc(SCC(=O)NC3CCS(=O)(=O)C3)s2)c(C)c1 (stereo not drawn),10.6%
23,CCn1ccnc1CN1CCC(CO)(CCOc2ccccc2)CC1,-8.02%

row,SMILES,"hERG current change (%, negative = inhibition) at 10uM"
1,Cc1ccccc1-c1c(C)oc2cc(O)ccc2c1=O,-4.58%
2,Cc1cccc(-n2ncc(Cl)c(Cl)c2=O)c1,22.2%
3,O=C(Cn1cnc([N+](=O)[O-])c1)NCc1ccc(F)cc1,7.86%
4,O=C(COc1cc(Cl)c(Cl)cc1Cl)N1CCN(c2ccccn2)CC1,16%
5,Cc1cccn2cc(CCNC(=O)c3ccc(Br)o3)nc12,-22%
6,O=C(CN1C(=O)c2ccccc2C1=O)N1CCN=C1c1ccccc1,6.66%
7,CCOc1ccc(NC(=O)CC2SC(N)=NC2=O)c([N+](=O)[O-])c1 (stereo not drawn),8.5%
8,CCc1nc(N)c(C#N)c(-c2ccc(F)cc2)c1C,8.14%
9,c1ccc(N=P(c2nc3ccccc3o2)(N2CCOCC2)N2CCOCC2)cc1,9.22%
10,O=C(CSc1nc(-c2ccco2)cc(C(F)(F)F)n1)N1CCN(c2cccc(Cl)c2)CC1,0.43%
11,O=C(Nc1nc2ccccc2n1CCN1CCOCC1)c1ccc(Cl)cc1,1.72%
12,Cc1ccccc1OCC(=O)Nc1ccc(NC(=O)c2ccco2)cc1,9.7%
13,Cc1cccn2c(=O)c3cc(C(=O)N4c5ccccc5CC4C)n(C)c3nc12 (stereo not drawn),8.08%
14,CC(=O)Nc1cccc(C(=O)NCCc2ccco2)c1,9.48%
15,N#Cc1c(N2C(=O)C3C4C=CC(C4)C3C2=O)sc2c1CCC2 (stereo not drawn),5.25%
16,N=Cc1c(O)n(-c2ccccc2)c(=O)n(-c2ccccc2)c1=O,13.1%
17,O=C(Oc1cccc([N+](=O)[O-])c1)C1CCN(C(=O)c2ccc(F)cc2)CC1,-41%
18,Cc1onc(-c2ccccc2Cl)c1C(=O)Nc1cccc2cccnc12,-4.17%
19,CCN1CCN(c2ccc(S(=O)(=O)N3CCCCC3)cc2N)CC1,-11.5%
20,CC/C(=N/O)C(=O)c1ccc(Br)cc1,2.19%
21,CSc1ccc(CN2CCC(Oc3cccc(C(=O)N4CCCC4)c3)CC2)cc1,-60.7%
22,CC1(C)C2CCC1(CS(=O)(=O)Nc1cccc(S(N)(=O)=O)c1)C(=O)C2 (stereo not drawn),13.3%
23,Cc1scc(C(=O)NNC(=S)NCc2ccccc2)c1C,3.71%

row,SMILES,"hERG current change (%, negative = inhibition) at 10uM"
1,O=C(O)C1CCCN1C(=O)OCc1ccccc1 (stereo not drawn),-12%
2,O=C(NC1CC(=O)N(c2ccc3c(c2)OCCO3)C1)N1CCCCC1 (stereo not drawn),12.4%
3,COc1ccc(C(=O)N2CCOCC2)cc1Br,25.3%
4,O=C1CC(C(=O)N2CCN(Cc3ccccc3)CC2)CN1Cc1ccccc1 (stereo not drawn),-39.7%
5,CN(C1CCS(=O)(=O)C1)S(=O)(=O)c1ccc(C2CCCCC2)cc1 (stereo not drawn),6.87%
6,CCCN(CCC)CCCNC(=O)c1ccc(CS(=O)(=O)c2c(Cl)cccc2Cl)o1,-73.1%
7,CN(C)c1ccc(C(=O)OCC(=O)NCCCc2ccccc2)cc1,-9.09%
8,CC(=O)c1c(N2CCN(Cc3ccccc3)CC2)[nH]c(-c2ccccc2)nc1=S,2.17%
9,Cc1ccccc1OCc1nnc(SCc2cc(=O)[nH]c3ccccc23)o1,7.77%
10,CCCCc1ccc(NS(=O)(=O)c2cccc(C(=O)N3CCCN(C)CC3)c2)cc1,-35.2%
11,CC(C)(C)C1CCc2c(sc3ncn(N)c(=N)c23)C1 (stereo not drawn),-41.5%
12,CN(C)CCCSc1nc2ccccc2s1.Cl,7.45%
13,COc1ccc(N2C(=S)NC3CS(=O)(=O)CC32)cc1 (stereo not drawn),6.44%
14,COc1ccc(CNC(=O)CCSc2ccc(F)cc2)cc1OC,-10.2%
15,Oc1ccc(CNc2ccccc2)c2cccnc12,21.4%
16,O=C(CCC(=O)c1ccc(F)cc1)Nc1cc(Cl)cc(Cl)c1,16.1%
17,CCc1cc(=O)oc2cc(C)cc(OCC(=O)NCc3ccncc3)c12,-54.8%
18,Cc1nn(-c2ccccc2)c(Cl)c1/C=N/NC(=O)OC(C)(C)C,1.2%
19,O=C1C2CC=CCC2C(=O)N1c1n[nH]c(CCc2ccccc2)n1 (stereo not drawn),6.91%
20,Cc1nn(C)c(C)c1S(=O)(=O)N(CC(=O)NCCCN1CCC(C)CC1)c1ccc(C(C)C)cc1,-64.7%
21,Cc1ccc(C)c(N2CCN(S(=O)(=O)c3ccc4[nH]c(=O)ccc4c3)CC2)c1,7.7%
